Experimental data from the supplement of paper PMC8512760.
This is one part of the list. Many values rest on one well or one pass, so single values are uncertain.

Columns and labels:
Assay in all cases: cell viability relative to vehicle (% of vehicle); basal-like triple-negative breast cancer lines; higher = less cytotoxic
Conditions in all cases: 10 µM; 72 h
HCC-1143 = test system: HCC-1143
HCC-1187 = test system: HCC-1187
MDA-468 = test system: MDA-468
SUM-149 = test system: SUM-149
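Further: stably firefly luciferase-GFP labeled cells in 96-well plates, viability read as luciferase photon flux after d-luciferin addition, treated wells normalized to vehicle wells, single-dose high-throughput screen.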

Row | SMILES | cell viability (HCC-1143) | cell viability (HCC-1187) | cell viability (MDA-468) | cell viability (SUM-149)
1 | O=C(O)c1cc(-c2ccccc2)nc2ccccc12 [Cinchophen] | 114 | 126 | 139 | 103
2 | COc1cc(C)c(C=CC(C)=CC=CC(C)=CC(=O)O)c(C)c1C [Acitretin] | 88.2 | 102 | 80.8 | 93
3 | COC(=O)C1=C(C)NC(C)=C(C(=O)OC(C)C)C1c1cccc2nonc12 (stereo unspecified) [Isradipine (Dynacirc)] | 116 | 99.5 | 109 | 98.8
4 | CO[C@H]1C(=O)[C@]2(C)[C@@H](OC)C[C@H]3OC[C@@]3(OC(C)=O)[C@H]2[C@H](OC(=O)c2ccccc2)[C@]2(O)C[C@H](OC(=O)[C@H](O)[C@@H](NC(=O)OC(C)(C)C)c3ccccc3)C(C)=C1C2(C)C [Cabazitaxel] | 83.9 | 26.8 | 71.5 | 185
5 | NCCCCCC(=O)O [(6-)ε-Aminocaproic acid] | 81.5 | 96.8 | 86.7 | 98
6 | N.N.O=C([O-])C1(C(=O)[O-])CCC1.[Pt+2] [Carboplatin] | 72.9 | 76.9 | 83.2 | 102
7 | OC[C@@H](O)[C@@H](O)[C@H](O)[C@@H](O)CO [D-Sorbitol] | 69.6 | 87.5 | 118 | 99
8 | Cc1cn(-c2cc(NC(=O)c3ccc(C)c(Nc4nccc(-c5cccnc5)n4)c3)cc(C(F)(F)F)c2)cn1 [Nilotinib(AMN-107)] | 105 | 101 | 103 | 119
9 | O=C(Nc1nc2cccc(-c3ccc(CN4CCS(=O)(=O)CC4)cc3)n2n1)C1CC1 | 65.7 | 51.8 | 102 | 111
10 | CC(=O)N1CCN(c2ccc(OCC3COC(Cn4ccnc4)(c4ccc(Cl)cc4Cl)O3)cc2)CC1 (single isomer, unassigned; (+)) [(+)-Ketoconazole] | 121 | 71.9 | 124 | 129
11 | Nc1ccn(C2OC(CO)C(O)C2O)c(=O)n1 (stereo unspecified) [Cytidine] | 71.1 | 70.5 | 114 | 132
12 | CC(C)CN(CC(O)C(Cc1ccccc1)NC(=O)OC1CCOC1)S(=O)(=O)c1ccc(N)cc1 (stereo unspecified) [Amprenavir (agenerase)] | 84.9 | 105 | 88.3 | 95.5
13 | CC(C)C(N)C(=O)OCCOCn1cnc2c(=O)nc(N)[nH]c21.Cl (stereo unspecified) [Valaciclovir HCl] | 98.9 | 112 | 88.5 | 118
14 | CC(C=CC1=C(C)CCCC1(C)C)=CC=CC(C)=CC(=O)O [Tretinoin (Aberela)] | 131 | 105 | 145 | 133
15 | O=C1NC([O-])=NC1(c1ccccc1)c1ccccc1.[Na+] [Phenytoin sodium] | 73.9 | 97.8 | 101 | 105
16 | COC(=O)C1C2CC3c4[nH]c5cc(OC)ccc5c4CCN3CC2CC(OC(=O)c2cc(OC)c(OC)c(OC)c2)C1OC (stereo unspecified) [Reserpine] | 119 | 96 | 131 | 97.7
17 | COc1cc(C=CC(=O)N2CCN(CC(=O)N3CCCC3)CC2)cc(OC)c1OC.O=C(O)C=CC(=O)O [Cinepazide maleate] | 72 | 76.9 | 112 | 130
18 | CN1CCC(OC(c2ccccc2)c2ccccc2)CC1.Cl [Diphenylpyraline HCl] | 80 | 87.2 | 103 | 88.9
19 | CC1(O)CC(c2nc(-c3ccc4ccc(-c5ccccc5)nc4c3)c3c(N)nccn23)C1 (stereo unspecified) [Linsitinib] | 75.8 | 104 | 124 | 89.4
20 | CCOC(=O)C(CCc1ccccc1)NC(C)C(=O)N1C(=O)N(C)CC1C(=O)O.Cl (stereo unspecified) [Imidapril HCl] | 82.7 | 75.5 | 103 | 106
21 | CCOc1nc2cccc(C(=O)O)c2n1Cc1ccc(-c2ccccc2-c2nc(=O)o[nH]2)cc1 [Azilsartan] | 97.7 | 95.7 | 112 | 110
22 | Cc1cc(C#N)cc(C)c1Oc1nc(Nc2ccc(C#N)cc2)nc(N)c1Br [Etravirine (TMC125)] | 67 | 56 | 118 | 81.7
23 | CN(CC/C=C1C2=CC=CC=C2C=CC3=CC=CC=C3\1)C.Cl [Cyclobenzaprine HCl] | 72.6 | 87.8 | 114 | 77.3
24 | C#CCNC1CCc2ccccc21.CS(=O)(=O)O (stereo unspecified) [Rasagiline Mesylate] | 105 | 71.5 | 97.4 | 83.3
